Some of the results follow.
target: T1, MBP-FoxP1dN (Mus musculus, UniProt P58462 326-579); test: PD-seq (MBP pull-down with sequencing); 20 mM Tris-HCl pH 7.5, 100 mM NaCl, 1.5 mM MgCl2, 0.4 uM protein, 0.1 uM dsDNA library, 30 min, room temperature, amylose pull-down; high values mean tight binding; details: protein: recombinant; tags: His6-MBP; chain copies: 2; dsDNA, one strand shown
T1 sequence: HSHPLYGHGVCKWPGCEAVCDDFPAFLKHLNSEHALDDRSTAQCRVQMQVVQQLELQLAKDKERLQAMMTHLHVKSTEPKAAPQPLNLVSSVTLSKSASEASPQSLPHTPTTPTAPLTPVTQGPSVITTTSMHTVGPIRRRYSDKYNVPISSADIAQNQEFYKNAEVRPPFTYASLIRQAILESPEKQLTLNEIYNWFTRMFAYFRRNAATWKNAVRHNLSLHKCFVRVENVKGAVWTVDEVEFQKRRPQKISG
In short: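 A fragment of mouse FoxP3 or FoxP1 without its N-terminus, carrying a His6-MBP tag and produced in E. coli, was combined at 0.4 µM with a 0.1 µM degenerate double-stranded DNA library filled in with Klenow. The mixture sat for 30 min at room temperature in Tris pH 7.5 buffer containing NaCl and MgCl2. Protein–DNA complexes were captured on amylose resin, washed three times, and the DNA was freed with proteinase K, barcoded by PCR and sequenced on Illumina. Binding is expressed as reads-per-million enrichment of pull-down over input, with replicates pooled.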

| Sequence | binding signal |
| --- | --- |
| GATGATTGTTCTCCCAGCTGATGAATTTCACAGCTCGAGTAAACAAATTTTCCTAATCTTTCTGTTCAAGCGCCATCTAC | 0.793 RPM ratio (pull-down/input) |
| GATGATTGTTCTCCCAGCTGATGAATTTCTTTTTTCGAGTAAACAAATTTTCCTAATCTTTCTGTTCAAGCGCCATCTAC | 0.916 RPM ratio (pull-down/input) |
| GATGATTGTTCTCCCAGCTGATGAATTAATCTCTTCGAGTAAACAAATTTTCCTAATCTTTCTGTTCAAGCGCCATCTAC | 0.923 RPM ratio (pull-down/input) |
| GATGATTGTTCTCCCAGCTGATGAATTGACTAAATCGAGTAAACAAATTTTCCTAATCTTTCTGTTCAAGCGCCATCTAC | 1.22 RPM ratio (pull-down/input) |
| GATGATTGTTCTCCCAGCTGATGAATTGCAGACCTCGAGTAAACAAATTTTCCTAATCTTTCTGTTCAAGCGCCATCTAC | 0.943 RPM ratio (pull-down/input) |
| GATGATTGTTCTCCCAGCTGATGAATTGGAGATCTCGAGTAAACAAATTTTCCTAATCTTTCTGTTCAAGCGCCATCTAC | 0.778 RPM ratio (pull-down/input) |
| GATGATTGTTCTCCCAGCTGATGAATTACGCTCTTCGAGTAAACAAATTTTCCTAATCTTTCTGTTCAAGCGCCATCTAC | 0.974 RPM ratio (pull-down/input) |
| GATGATTGTTCTCCCAGCTGATGAATTACTTTATTCGAGTAAACAAATTTTCCTAATCTTTCTGTTCAAGCGCCATCTAC | 1.15 RPM ratio (pull-down/input) |
| GATGATTGTTCTCCCAGCTGATGAATTAAATTTTTCGAGTAAACAAATTTTCCTAATCTTTCTGTTCAAGCGCCATCTAC | 0.967 RPM ratio (pull-down/input) |
| GATGATTGTTCTCCCAGCTGATGAATTAGTCGGGTCGAGTAAACAAATTTTCCTAATCTTTCTGTTCAAGCGCCATCTAC | 0.826 RPM ratio (pull-down/input) |
| GATGATTGTTCTCCCAGCTGATGAATTACGAAACTCGAGTAAACAAATTTTCCTAATCTTTCTGTTCAAGCGCCATCTAC | 1.06 RPM ratio (pull-down/input) |
| GATGATTGTTCTCCCAGCTGATGAATTCAGGGACTCGAGTAAACAAATTTTCCTAATCTTTCTGTTCAAGCGCCATCTAC | 0.719 RPM ratio (pull-down/input) |
| GATGATTGTTCTCCCAGCTGATGAATTGACACTATCGAGTAAACAAATTTTCCTAATCTTTCTGTTCAAGCGCCATCTAC | 1.33 RPM ratio (pull-down/input) |
| GATGATTGTTCTCCCAGCTGATGAATTCAAGAAATCGAGTAAACAAATTTTCCTAATCTTTCTGTTCAAGCGCCATCTAC | 0.981 RPM ratio (pull-down/input) |
| GATGATTGTTCTCCCAGCTGATGAATTGATGCCTTCGAGTAAACAAATTTTCCTAATCTTTCTGTTCAAGCGCCATCTAC | 1.28 RPM ratio (pull-down/input) |
| GATGATTGTTCTCCCAGCTGATGAATTTTAGCGCTCGAGTAAACAAATTTTCCTAATCTTTCTGTTCAAGCGCCATCTAC | 0.826 RPM ratio (pull-down/input) |

| Sequence | binding signal |
| --- | --- |
| GATGATTGTTCTCCCAGCTGATGAATTCCAGTATTCGAGTAAACAAATTTTCCTAATCTTTCTGTTCAAGCGCCATCTAC | 0.979 RPM ratio (pull-down/input) |
| GATGATTGTTCTCCCAGCTGATGAATTGAGGGGGTCGAGTAAACAAATTTTCCTAATCTTTCTGTTCAAGCGCCATCTAC | 0.767 RPM ratio (pull-down/input) |
| GATGATTGTTCTCCCAGCTGATGAATTGCCATCATCGAGTAAACAAATTTTCCTAATCTTTCTGTTCAAGCGCCATCTAC | 1.1 RPM ratio (pull-down/input) |
| GATGATTGTTCTCCCAGCTGATGAATTAAAAGGGTCGAGTAAACAAATTTTCCTAATCTTTCTGTTCAAGCGCCATCTAC | 0.793 RPM ratio (pull-down/input) |
| GATGATTGTTCTCCCAGCTGATGAATTTAACACATCGAGTAAACAAATTTTCCTAATCTTTCTGTTCAAGCGCCATCTAC | 1.18 RPM ratio (pull-down/input) |
| GATGATTGTTCTCCCAGCTGATGAATTGACTCAGTCGAGTAAACAAATTTTCCTAATCTTTCTGTTCAAGCGCCATCTAC | 0.938 RPM ratio (pull-down/input) |
| GATGATTGTTCTCCCAGCTGATGAATTAACCGCTTCGAGTAAACAAATTTTCCTAATCTTTCTGTTCAAGCGCCATCTAC | 0.885 RPM ratio (pull-down/input) |
| GATGATTGTTCTCCCAGCTGATGAATTGCGCATCTCGAGTAAACAAATTTTCCTAATCTTTCTGTTCAAGCGCCATCTAC | 1.43 RPM ratio (pull-down/input) |
| GATGATTGTTCTCCCAGCTGATGAATTTGGCCGGTCGAGTAAACAAATTTTCCTAATCTTTCTGTTCAAGCGCCATCTAC | 0.768 RPM ratio (pull-down/input) |
| GATGATTGTTCTCCCAGCTGATGAATTCGAAGACTCGAGTAAACAAATTTTCCTAATCTTTCTGTTCAAGCGCCATCTAC | 0.814 RPM ratio (pull-down/input) |
| GATGATTGTTCTCCCAGCTGATGAATTGAAAAGATCGAGTAAACAAATTTTCCTAATCTTTCTGTTCAAGCGCCATCTAC | 0.856 RPM ratio (pull-down/input) |
| GATGATTGTTCTCCCAGCTGATGAATTCGGCCACTCGAGTAAACAAATTTTCCTAATCTTTCTGTTCAAGCGCCATCTAC | 0.831 RPM ratio (pull-down/input) |
| GATGATTGTTCTCCCAGCTGATGAATTTCTCTCGTCGAGTAAACAAATTTTCCTAATCTTTCTGTTCAAGCGCCATCTAC | 0.904 RPM ratio (pull-down/input) |
| GATGATTGTTCTCCCAGCTGATGAATTCGGAACATCGAGTAAACAAATTTTCCTAATCTTTCTGTTCAAGCGCCATCTAC | 0.931 RPM ratio (pull-down/input) |
| GATGATTGTTCTCCCAGCTGATGAATTTGACCGCTCGAGTAAACAAATTTTCCTAATCTTTCTGTTCAAGCGCCATCTAC | 0.8 RPM ratio (pull-down/input) |

Source: paper PMC12820563, “FoxP3 forms a head-to-head dimer in vivo and stabilizes its multimerization on adjacent microsatellites”
